Laboratory results published in the supplement of paper PMC10126150.
Values marked as one replicate rest on one cluster of the flow cell; about a third of the high ones do not repeat.

System: ATP
Experiment: switch fluorescence ratio, 500 uM ATP over buffer (Cy3 cluster intensity, sum of 5 cycles each) (fold (ratio)); higher = stronger signal-on switching upon ATP binding; sequences stand for … in TCGTCGGCAGCGTCAGATGTGTATAAGAGACAGTTTTTTTTTTTTTTTTTTTTTTTTT…TC
Settings: aptamer strand: ATP DNA aptamer (quencher-CACCTGGGGGAGTATTGCGGAGGAAGG + anchor), 100 nM annealed; ATP concentration: 500 uM; one replicate
Procedure, shortened: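 Between each of five buffer/ATP cycles, the flow-cell was stripped with NaOH and re-annealed. Each cycle imaged Cy3-labelled switching-strand clusters, annealed to 100 nM quencher-labelled ATP aptamer on a modified Illumina MiSeq flow-cell, first in selection buffer and then after 15 min with 500 uM ATP at 22 °C. The fluorescence ratio is summed target-cycle over summed buffer-cycle Cy3 intensity per cluster, averaged per switch-domain sequence, with clusters outside 100-1000 RFU excluded.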
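Note: ATP exposure 15 min at 22 °C before imaging.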

Row | Sequence | switch fluorescence ratio
1 | CATCGACTCT | 1
2 | ACTCTGCCAG | 1.48
3 | TCGGGGCACA | 1.93
4 | ACACAATCGT | 0.995
5 | GGGGCTGTCC | 0.991
6 | ATGAGGTTGA | 0.988
7 | GTCTTTTAAT | 0.954
8 | ATGAAGTTTG | 1.91
9 | CGTAGGAAAT | 1.45
10 | ACCTGCATTC | 3.6
11 | CCTTCGATAT | 2.89
12 | TGCCAATTGC | 1.08
13 | GGTCTACGTG | 1.03
14 | TTCGGTGCG | 0.962
15 | GCCGTGCATG | 0.992
16 | AGTTACAAGT | 1.02
17 | ACCAGTCGGG | 0.998
18 | ACTCATTGGC | 1.06
19 | AAGACCGATC | 1.29
20 | CGGTTGCAGC | 0.991
21 | AGATCTCGAC | 0.985
22 | TTCACGTGGT | 0.962
23 | GTGCAGTTCG | 0.978

Row | Sequence | switch fluorescence ratio
24 | TTTGGAGTAT | 1.19
25 | CATCGGCTCC | 1.41
26 | TTGGATATCG | 0.995
27 | GTGGGTAAAT | 1
28 | GATATTTTAC | 1.04
29 | GCGTACCTTT | 0.969
30 | GCGTCCGGTA | 1.06
31 | CCTGTCTGTA | 0.984
32 | GGAATTAGAC | 0.979
33 | AGTGTTCCTG | 0.991
34 | ATGGGTAGAC | 1.04
35 | ACTGACCCCT | 1.17
36 | GCTAGTTACG | 1.06
37 | ATTAACCTC | 1.07
38 | GTCACAGCGG | 1.03
39 | CTAATGAACG | 1.05
40 | ATTTCCTGGC | 1.1
41 | ATATTTGCTG | 1.02
42 | CAAGTGCAAC | 0.976
43 | CACATTGTAC | 1.15
44 | CCAGTACTGC | 1.07
45 | TGGCTGTTAC | 1.14
46 | TCGTTTAACC | 0.977

Row | Sequence | switch fluorescence ratio
47 | CCGAGACCTC | 1.15
48 | TAATGCACGG | 1.08
49 | CATCGCTATT | 1.04
50 | AGTATCGCGT | 0.966
51 | GAATGCGCAG | 0.996
52 | TGGTAGCCTT | 0.999
53 | TGTTTTCA | 0.994
54 | GAAAGCCGTC | 0.88
55 | GAAGTAGTAC | 3.21
56 | TAACACCAAT | 1.03
57 | GCATGGGAAT | 0.976
58 | GTCTGTTGGG | 0.959
59 | AATGTTATTT | 1.01
60 | CGGTGGTAAG | 0.982
61 | GTTAGGATGA | 0.983
62 | ATTTCGATAC | 2.38
63 | CCCGTTTAGG | 0.988
64 | ATAACCGGCG | 1.05
65 | AATTTATGCT | 0.962
66 | CTTGTCGAAT | 1.02
67 | ATGCTCCGGT | 1.04
68 | GCAAGGCCTG | 0.99
69 | TATATGGGCG | 1.09

Row | Sequence | switch fluorescence ratio
70 | ATTAGCCGTC | 1.05
71 | GCAAGGTACA | 1.1
72 | AAAGTATCCA | 1
73 | ATGCCCGTGT | 0.999
74 | AGGAAATATA | 0.96
75 | TGAGAATATT | 0.995
76 | AAACCAGATG | 1.12
77 | TTTCGGTGT | 0.977
78 | GTCGGGACAG | 1.01
79 | CATTACCAGT | 0.998
80 | TTCTCGCATG | 1.11
81 | CGCATACTTA | 3.72
82 | ATTGTATGG | 1.04
83 | AGCTGCATAT | 1.12
84 | TCCTTTTTAT | 0.947
85 | CAGGCTGCCG | 0.919
86 | CACTATCGCG | 1.03
87 | TAGGTTGAGC | 0.96
88 | AGTTGTGATG | 1.04
89 | CATGAGACCT | 1.39
90 | CGCAAACGTT | 1.2
91 | TGCCCTGGCT | 0.926
92 | GATGGGTTG | 1.02

Row | Sequence | switch fluorescence ratio
93 | CCTCCACTGG | 3.91
94 | GTAGGGCCGC | 0.995
95 | AACGTATAAG | 1.03
96 | TTAATCTGGT | 1
97 | GAATGTAAAT | 0.989
98 | GTGCTAGGCC | 1.01
99 | CATAAAAGGT | 0.99
100 | TTGATTTGGC | 1
101 | ATCAGACAAT | 1.01
102 | TTTGACTCCA | 1.06
103 | AATGTTTATG | 0.991
104 | AAGATGTTTA | 1.24
105 | TGAAAGTGC | 1.09
106 | CTTGTTGACG | 1.09
107 | GTTAATTTCA | 1.02
108 | AACAGATCGC | 0.979
109 | CCCGGCATAA | 3.79
110 | AGAAAGAATC | 1.04
111 | TTGTTTTAA | 0.923
112 | TCCGACATAT | 1.14
113 | ATGATAGAAA | 0.979
114 | AAGTCAACGC | 0.968
115 | AGAATTCCTT | 0.981

Row | Sequence | switch fluorescence ratio
116 | TAGCACACAC | 1.47
117 | AGCTCAGTCG | 0.985
118 | GAACTAGCGA | 1.01
119 | TGGGTAGACA | 1
120 | AGAGACAAAG | 0.982
121 | TTACCATGGT | 1.01
122 | GTGAGGTTCG | 1.01
123 | CACATGAGGC | 0.917
124 | TACTCTTACA | 1.15
125 | TATGACTTGT | 1.02
126 | GAGGGTCAGG | 0.994
127 | CTATCATGT | 1.05
128 | TACAATGAGG | 1.01
129 | CCAACTAGGC | 1.12
130 | AACCCGCGGT | 1.02
131 | GATGCAACGA | 1.13
132 | CTCGAACTTA | 1.03
133 | TGATGAGGTT | 0.983
134 | CATCACCTTT | 0.98
135 | AAAGGTTAGC | 1.01
136 | TATCTTTTAC | 1.05
137 | TAGAGTCAAG | 1.01
138 | TAGCAGGGAA | 1.01

Row | Sequence | switch fluorescence ratio
139 | AAAAGGAACG | 1.04
140 | ATTGTAAGGA | 0.981
141 | TGCCCCCCTA | 1.03
142 | TGGTTACGG | 0.99
143 | CCAAACATCT | 1.01
144 | AATAACTAAG | 0.994
145 | AAGATAGTTG | 0.991
146 | CGACGACGAC | 5.28
147 | TTCGAGAGAC | 1.49
148 | ATTACACCGA | 1.05
149 | CATTTGTGT | 1.02
150 | AAGCTAATTG | 0.982
151 | TCAATTTACA | 1.1
152 | CTAGACTATG | 0.991
153 | CAGTAACGTC | 1.06
154 | AGCGAAATAA | 1.06
155 | GAATCCATAG | 1.02
156 | CAACCCAGAC | 1.58
157 | ACATGTCCT | 1.05
